In PubChem BioAssay AID504339 (National Center for Advancing Translational Sciences (NCATS), 2011):
Among all 390,000 compounds or so, about 17,000 (4.4%) were called active. Inconclusive results, whose numbers are uncertain, are shown with a selection of clear calls. Calls follow the shape of the dose curve; as a rule, active = well fitted inhibition curve with a large enough effect; inconclusive = small, poorly fitted or top-dose-only effect; inactive = no such curve, though single readings can be large or run the other way. A potency beside an inconclusive call is a rough fit, not a confirmed value.

Target: Lysine-specific demethylase 4A (Homo sapiens) (UniProt O75164)
Assay: qHTS Assay for Inhibitors of JMJD2A-Tudor Domain; also: nearly all actives have a fitted effect of over 50% in size
Details: AlphaScreen JMJD2A-Tudor / H3K4me3 peptide binding; series mostly up to 114 µM
Excerpt: JMJD2A is a jumonji-domain-containing lysine demethylase that uses Fe(II) together with 2-OG to effect oxidative demethylation of histones. Methylation is one of many […] modification that affect epigenetic transcription. […] It is proposed that the functions of JmjD2A binding to the histones, is to maintain marks after they are installed and to spread the modifications by […], establishing a self-propagating cycle for rapid methylation over a large area of chromatin. […] Thus, small molecule targeting of the JMJD2A-tudor domain interaction with its target methylhistone mark is expected to enable sophisticated experiments probing the fine regulatory pathways leading to selective demethylation of a given methyllysine locus based on the methylation state of adjacent histone marks. A quantitative high throughput AlphaScreen has been developed to identify small molecule inhibitors based on a protocol published by NCGC and SGC [4].
Although AlphaScreen has significant advantages with its utility in a variety of epigenetic target assays, the primary screening data provided in this deposition should be used with caution due to the prevalence of screening artifacts. The top compound concentration tested was high (>100uM) in this assay, which increases number of actives and potential artifacts. An AlphaScreen counterscreen is highly recommended to be run against any putative actives to eliminate non-specific artifacts. Alternatively, one can use other AlphaScreen assays in PubChem to filter out promiscuous hits.
[1] Lee, J. et al. Distinct binding modes specify the recognition of methylated histone H3K4 and H4K20 by JMJD2A-tudor. Nat Struct Mol Biol. 15(1); 109-11. 2008. PMID: 18084306
[2] Yasgar, et al. Compound Management for Quantitative High-Throughput Screening. JALA. 2008 Apr;13(2):79-89. PMID: 18496600
[3] Inglese, et al. Quantitative high-throughput screening: a titration-based approach that efficiently identifies biological activities in large chemical libraries. Proc Natl Acad Sci. 1;103(31):11473-8. 2006. PMID: 16864780
[4] Quinn et al. A homogeneous method for investigation of methyl-dependent protein-protein interactions in epigenetics. Nucleic Acids Res., 38(2):e11. 2010. PMID: […]
[5] Baell,Holloway. New substructure filters for removal of pan assay interference compounds (PAINS) from screening libraries and for their exclusion in bioassays. J Med Chem. 53(7):2719-40. 2010. PMID: 20131845
NIH Molecular Libraries Probe Production Network [MLPCN]
NIH Chemical Genomics Center [NCGC]
Structural Genomics Consortium (SGC)
To each well of a 1,536w plate, 2ul of JMJD2A-Tudor (final 100nM) and 1ul biotinylated histone peptide methylated at Lys4 [b-H3(1-18)K4me3] (final 50nM) were added in 1x PBS buffer, pH 7.4, containing 0.01% Tween-20, using a nanoliter dispenser. Formation of a protein-peptide complex proceeded at room temperature for 30 min. A Kalypsys pin-tool transferred 23nl of library compound solution in DMSO to each well. Following a 30 min incubation of the protein-peptide complex with compounds at room temperature, a mixture of 40 µg/mL each streptavidin-coated donor and nickel chelate acceptor AlphaScreen beads (final 10 µg/mL) was added in a 1ul dispense for a final volume of 4ul, followed by a brief centrifugation (1000 rpm, 1 min). Plates were incubated protected from the light for 20 min at room temperature. Microplates were then read on an EnVision multilabel plate reader using the 1,536 plate HTS AlphaScreen aperture (excitation time 80 ms, measurement time 240 ms).
Potency is read from the fitted curve at half-maximal effect; tags tell the direction and shape of the fitted curve.

UniProt O75164, sequence (O75164 whole entry, looked up, the tested form may be a part): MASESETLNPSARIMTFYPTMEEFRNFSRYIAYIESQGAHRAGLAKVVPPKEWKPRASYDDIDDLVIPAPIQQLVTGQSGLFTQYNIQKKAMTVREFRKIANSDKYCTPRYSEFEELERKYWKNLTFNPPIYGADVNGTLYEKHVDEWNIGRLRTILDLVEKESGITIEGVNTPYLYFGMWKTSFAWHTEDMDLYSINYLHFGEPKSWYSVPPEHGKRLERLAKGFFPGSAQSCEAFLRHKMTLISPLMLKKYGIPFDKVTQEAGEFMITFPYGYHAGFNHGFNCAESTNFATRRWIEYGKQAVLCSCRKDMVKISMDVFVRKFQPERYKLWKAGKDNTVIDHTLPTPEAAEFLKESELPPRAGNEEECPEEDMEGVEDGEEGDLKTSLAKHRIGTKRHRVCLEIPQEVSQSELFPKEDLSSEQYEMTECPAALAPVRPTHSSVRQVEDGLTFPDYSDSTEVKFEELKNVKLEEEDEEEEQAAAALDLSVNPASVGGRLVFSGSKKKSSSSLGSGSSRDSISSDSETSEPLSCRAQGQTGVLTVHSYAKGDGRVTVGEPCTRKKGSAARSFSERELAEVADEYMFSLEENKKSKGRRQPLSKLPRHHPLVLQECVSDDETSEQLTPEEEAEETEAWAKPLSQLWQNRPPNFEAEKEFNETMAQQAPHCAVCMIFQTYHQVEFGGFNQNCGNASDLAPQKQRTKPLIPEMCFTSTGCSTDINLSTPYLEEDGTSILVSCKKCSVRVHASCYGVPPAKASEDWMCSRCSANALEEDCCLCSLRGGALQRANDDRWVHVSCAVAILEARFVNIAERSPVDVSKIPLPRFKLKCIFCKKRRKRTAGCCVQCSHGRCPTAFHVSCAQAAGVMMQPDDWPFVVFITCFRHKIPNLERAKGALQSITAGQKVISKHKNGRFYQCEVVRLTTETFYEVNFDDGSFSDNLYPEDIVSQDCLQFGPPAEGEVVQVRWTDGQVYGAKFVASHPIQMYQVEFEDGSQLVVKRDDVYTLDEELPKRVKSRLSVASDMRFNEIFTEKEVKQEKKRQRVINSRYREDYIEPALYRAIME

SMILES	Potency
CCCCS/C(=C(/C#N)C(N)=O)c1cc2c([nH]1)CCCC2	active: 44.7 µM
O=S(=O)(NCC(c1ccco1)N1CCN(c2ccc(F)cc2)CC1)c1cc(F)ccc1F (centres undefined)	inconclusive: 56.2 µM [inhibitor, partial curve]
COc1cc(S(=O)(=O)NC(C)C)ccc1Cl	inactive
COc1ccc(CCNC(=O)c2ccc3[nH]c(C)c(C)c3c2)cc1OC	inconclusive: 50.1 µM [inhibitor, partial curve]
COc1ccc(-c2nnc(SCC(=O)N3CCN(c4ccccc4)CC3)o2)cc1OC	inconclusive: 17.8 µM [inhibitor, single point]
Cc1csc(NC(=O)C2CCCN(S(=O)(=O)c3ccc(Br)s3)C2)n1 (centres undefined)	inconclusive: 56.2 µM [inhibitor, partial curve, poor fit]
CC1(C(=O)OCC(=O)Nc2ccc3ccccc3c2)CC1(Cl)Cl (centres undefined)	inactive
Cc1cccc(NC(=O)NNS(=O)(=O)c2ccc(F)cc2)c1	inactive
CCCC1=C(C(=O)OCC)C(c2ccc(F)cc2)n2ncnc2N1 (centres undefined)	inactive
CN1CCN(/N=C/c2ccc(-c3ccccc3)cc2)CC1	active: 39.8 µM
Oc1ccccc1-c1cc(-c2ccc3c(c2)OCCO3)n[nH]1	inconclusive: 89.1 µM [inhibitor, partial curve]
O=C(C[n+]1ccccc1)N/N=C/c1ccc(Cl)c(Cl)c1	active: 22.4 µM
CCC(=O)N1CCN(c2ccc(NC(=S)NC(=O)COc3ccccc3)cc2)CC1	inconclusive: 79.4 µM [inhibitor, partial curve]
Cn1c(CNc2cccc(C(F)(F)F)c2)n[nH]c1=S	inconclusive: 17.8 µM [inhibitor, single point]
CN(C)C(=O)CSc1nnc(-c2ccncc2)n1Cc1ccco1	inactive
Cc1ccccc1C(=O)NC(CC(C)C)C(=O)N1CCN(c2ccccc2)CC1 (centres undefined)	inactive
CC(OC(=O)c1ccc(Cl)c(S(=O)(=O)Nc2ccc(F)cc2)c1)C(=O)NC(N)=O (centres undefined)	inactive
CCc1c(C)nc(SCC(=O)N2CCN(c3ccccc3)CC2)[nH]c1=O	inactive
CCN(CC)CCN(C(=O)c1ccc2c(c1)CCCC2)c1nc2c(C)cccc2s1	inconclusive: 63.1 µM [inhibitor, partial curve]
Cc1ccc(-c2cc(C(=O)OCC(=O)N(C)C3CCS(=O)(=O)C3)c3ccccc3n2)o1 (centres undefined)	active: 79.4 µM
Oc1ccc(C(=Nc2ccccc2)c2ccccc2)c(O)c1	inconclusive: 25.1 µM [inhibitor, full curve]
O=C(CN1CCc2ccccc21)NCc1ccccc1Cl	inconclusive: 39.8 µM [inhibitor, single point]
NS(=O)(=O)c1ccc(CNc2nc(-c3cccnc3)nc3ccccc23)cc1	inactive
Cn1c(CSCc2ccccc2Cl)n[nH]c1=S	inconclusive: 25.1 µM [inhibitor, partial curve, poor fit]
CCOC(=O)c1[nH]c(C)c(CCC(=O)N2CCN(c3ccc(Cl)cc3)CC2)c1C	inconclusive: 56.2 µM [inhibitor, partial curve]

SMILES	Potency
CC(C)c1cc(CN2C(C)COCC2C)cc(C(C)C)c1O (centres undefined)	inactive
Cc1cc(C(=O)N/N=C/c2ccc(-c3cccc([N+](=O)[O-])c3)o2)n[nH]1	inactive
COc1ccc(-c2ccc(=O)n(CC(=O)Nc3ccc(Br)cc3F)n2)cc1	inactive
CCCCOC(=O)C1=C(N)N2C(=O)C(C)SC2=C(C(=O)OCC)C1c1ccc(O)c(OC)c1 (centres undefined)	inconclusive: 56.2 µM [inhibitor, partial curve]
COc1ccc(Cc2c(C)nn(-c3nc(C)c(C(=O)Nc4cccc(C(C)=O)c4)s3)c2C)cc1	inactive
COc1ccccc1OCc1ccc(C(=O)NCc2ccco2)o1	inconclusive: 56.2 µM [inhibitor, partial curve]
O=C(CSc1oc(-c2ccc(F)cc2)nc1S(=O)(=O)c1ccccc1)c1ccc(Cl)cc1	inactive
O=C(c1ccc(N2CCCCC2)c([N+](=O)[O-])c1)N1CCN(c2ccccn2)CC1	inconclusive: 56.2 µM [inhibitor, partial curve]
CC(=O)n1nc(-c2ccccc2)nc1NCc1ccc(N(C)C)cc1	active: 35.5 µM
CCC(=O)N1CCN(c2ccc(NC(=O)c3ccc4c(c3)OCCO4)cc2)CC1	inactive
O=[N+]([O-])c1cc(C(F)(F)F)cc([N+](=O)[O-])c1N1CCCNCC1	inconclusive: 50.1 µM [inhibitor, partial curve]
Cc1ccc(-c2nnc(Oc3ccc(NC(=O)c4ccccc4)cc3)c3ccccc23)cc1	inactive
C#CCOCCOCCOCCNc1nc(N2CCOCC2)nc(N2CCN(C(=O)[C@H](CCC(=O)O)n3cc(C(N)[C@H](C)CC)nn3)CC2)n1 (some centres undefined)	active: 39.8 µM
Cc1nn(C)c(C)c1CN(C)C(=O)c1nn2c(c1Br)NC(c1cccs1)CC2C(F)(F)F (centres undefined)	inconclusive: 89.1 µM [inhibitor, single point]
Cc1cc(NC(=O)CCN2CCC(C(N)=O)CC2)ccc1Br	inactive
COc1ccc2c(c1)-c1nc(N)sc1CC2	inconclusive: 50.1 µM [inhibitor, partial curve]
Cc1cc(Cl)ccc1NNC(=O)c1c(C)noc1C	active: 79.4 µM
CCn1c(Cn2nnc(-c3ccccc3)n2)nnc1SCC(=O)Nc1ccc(C(C)=O)cc1	inactive
COc1ccccc1/C=N/Nc1nncc2ccccc12	inconclusive: 22.4 µM [inhibitor, partial curve]
COc1ccccc1C(=O)NNC(=O)C(=O)NC(C)C	inconclusive: 15.8 µM [inhibitor, full curve, poor fit]
COc1ccc(-n2ccnc(NCCc3ccc(S(N)(=O)=O)cc3)c2=O)cc1Cl	inactive
Cc1ccc(-n2c(=O)c3c4c(sc3n3c(=S)[nH]nc23)CCC4)cc1	active: 25.1 µM
Cc1ccc2[nH]c3c(c2c1)CN(C(=O)CN1c2ccc(F)cc2CCC1C)CC3 (centres undefined)	active: 44.7 µM
COC(=O)c1sccc1N/C=C(\C#N)S(=O)(=O)C(C)(C)C	active: 79.4 µM
